Laboratory results published in PubChem BioAssay AID1645882 (National Center for Advancing Translational Sciences (NCATS), 2021).
Several values for one entry are separate records, joined by “and”; a condition that tells them apart may be missing. Equal entries are not always repeated. Hit rate of the full screen: of about 16,000 compounds, about 120 (0.75%) were called active. The shares of active, inactive and inconclusive entries below differ from those in the screen. The call rests on the fitted dose curve; in most records, active means well fitted inhibition curve with a large enough effect; inconclusive means small, poorly fitted or top-dose-only effect; inactive means no such curve, though single readings can be large or run the other way. Potencies beside an inconclusive call are fits to weak or partial responses and may not hold up. The source holds several records for some structures; these can differ, active in one and inactive in another.

Target: Rap guanine nucleotide exchange factor 3 (Homo sapiens) (UniProt O95398)
Test: Validation qHTS for antagonist of cAMP-regulated guanine nucleotide exchange factor 3 (EPAC1); further: nearly all actives have a fitted effect of over 75% in size
Details: EPAC1 Rap1B-BODIPY-GDP exchange, fluorescence; series mostly up to 150 µM
Summary of the method: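 EPAC1 (100 nM) mixed with 250 nM RAP1B-BODIPY-GDP and 50 uM GDP; compounds in concentration series, 5 min at room temperature. Fluorescence (ex 480/em 540 nm) read every 5 min for 30 min; normalized to ATA control and DMSO.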
Potency means the concentration at half of the fitted maximal effect; tags describe the fitted curve by direction and shape.

UniProt O95398, sequence (O95398 whole entry, looked up): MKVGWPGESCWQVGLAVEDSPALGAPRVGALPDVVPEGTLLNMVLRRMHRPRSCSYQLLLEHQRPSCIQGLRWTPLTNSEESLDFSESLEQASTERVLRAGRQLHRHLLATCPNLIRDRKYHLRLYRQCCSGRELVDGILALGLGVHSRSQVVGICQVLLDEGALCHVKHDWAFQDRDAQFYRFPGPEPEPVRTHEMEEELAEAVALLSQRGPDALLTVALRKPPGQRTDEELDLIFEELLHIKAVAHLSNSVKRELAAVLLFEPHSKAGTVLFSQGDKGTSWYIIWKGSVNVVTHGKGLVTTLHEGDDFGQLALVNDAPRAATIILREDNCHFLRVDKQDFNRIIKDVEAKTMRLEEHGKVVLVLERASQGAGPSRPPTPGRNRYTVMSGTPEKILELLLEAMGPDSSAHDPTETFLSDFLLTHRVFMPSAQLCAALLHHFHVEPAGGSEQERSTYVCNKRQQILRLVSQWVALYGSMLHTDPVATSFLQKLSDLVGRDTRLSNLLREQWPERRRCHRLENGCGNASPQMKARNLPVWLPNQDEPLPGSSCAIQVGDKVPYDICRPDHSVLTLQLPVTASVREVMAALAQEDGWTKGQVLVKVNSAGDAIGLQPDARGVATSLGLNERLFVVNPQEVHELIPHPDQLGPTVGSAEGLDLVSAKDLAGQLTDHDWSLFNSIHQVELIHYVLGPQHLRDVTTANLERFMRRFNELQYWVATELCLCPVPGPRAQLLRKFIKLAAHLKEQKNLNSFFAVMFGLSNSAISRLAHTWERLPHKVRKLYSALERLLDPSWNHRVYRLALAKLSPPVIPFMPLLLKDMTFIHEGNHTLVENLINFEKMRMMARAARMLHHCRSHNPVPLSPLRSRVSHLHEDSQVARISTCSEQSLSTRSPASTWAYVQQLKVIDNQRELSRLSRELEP

Row | SMILES | Potency
1 | Cn1cccc1C(=O)N1CCC[C@@]2(CCN(Cc3cc(C(F)(F)F)cc(C(F)(F)F)c3)C2)C1 | inconclusive: 89.1 µM [inhibitor, partial curve]
2 | CC1(C)CC[C@]2(C(=O)O)CC[C@]3(C)C(=CCC4[C@@]5(C)CC[C@H](O)C(C)(C)C5[C@H](O)C[C@]43C)C2C1 (some centres not stated) | inconclusive: 56.2 µM [inhibitor, partial curve, poor fit]
3 | CC(C)(O)c1ccccc1CC[C@@H](SCC1(CC(=O)O)CC1)c1cccc(/C=C/c2ccc3ccc(Cl)cc3n2)c1 | active: 79.4 µM
4 | COc1c(N2CCNC(C)C2)c(F)cc2c(=O)c(C(=O)O)cn(C3CC3)c12 (configuration not stated) | inconclusive: 15.8 µM [inhibitor, partial curve, poor fit]
5 | OCc1ccccc1O | inconclusive: 126 µM [inhibitor, single point]
6 | CCCCCCCCCCCCCCCCSCC(COC)COP(=O)([O-])OCC[N+](C)(C)C (configuration not stated) | inactive
7 | CC(C)(C)c1ccc2c(S(=O)(=O)O)c(C(C)(C)C)ccc2c1 | inconclusive: 178 µM [inhibitor, single point]
8 | CCCCCCCCCC[n+]1cccc2cc(Br)ccc21 | inconclusive: 50.1 µM [inhibitor, partial curve, poor fit]
9 | CO[C@H]1C[C@@H]2CC[C@@H](C)[C@@](O)(O2)C(=O)C(=O)N2CCCC[C@H]2C(=O)OC([C@H](C)C[C@@H]2CC[C@@H](O)[C@H](OC)C2)CC(=O)[C@H](C)/C=C(\C)[C@@H](O)[C@@H](OC)C(=O)[C@H](C)C[C@H](C)/C=C/C=C/C=C/1C (some centres not stated) | inconclusive: 50.1 µM [inhibitor, single point]
10 | CCC(C(=O)NC(N)=O)c1ccccc1 (configuration not stated) | inactive
11 | Cc1ccc(-n2nc(C(C)(C)C)cc2NC(=O)Nc2ccc(OCCN3CCOCC3)c3ccccc23)cc1 | inconclusive: 112 µM [inhibitor, single point]
12 | CCCCC/C=C\C/C=C\C/C=C\C/C=C\CCCC(=O)O | active: 70.8 µM and inactive
13 | Cc1cc(C)c(S(=O)(=O)Nc2cccc(C(F)(F)F)c2)c(C)c1 | inconclusive: 25.1 µM [inhibitor, full curve]
14 | COc1ccc2[nH]cc(CCNc3cc(-c4ccccc4Cl)ncn3)c2c1 | inconclusive: 56.2 µM [inhibitor, partial curve, poor fit]
15 | CC(C)CCCC(C)C1CCC2C3CC=C4CC(=O)CC[C@@]4(C)C3CC[C@@]12C (some centres not stated) | inactive
16 | COC(=O)CC1C(C)(C)C(OC(C)=O)C2[C@H](OC(C)=O)[C@]34O[C@]2(O)[C@]1(C)C3CC[C@]1(C)C4=CC(=O)OC1c1ccoc1 (some centres not stated) | inconclusive: 35.5 µM [inhibitor, full curve, poor fit]
17 | CCCCC(=O)NCCc1c(Cc2ccccc2)[nH]c2ccccc12 | inconclusive: 10 µM [inhibitor, partial curve, poor fit]
18 | COc1cccc(-c2ccc3ncnc(NCc4ccccc4)c3c2)c1 | inconclusive: 63.1 µM [inhibitor, partial curve, poor fit]
19 | Cc1cc2c(C(C)C)c(O)c(O)c(C=O)c2c(O)c1-c1c(C)cc2c(C(C)C)c(O)c(O)c(C=O)c2c1O | inconclusive: 39.8 µM [inhibitor, single point] [middle of 5 runs]

Row | SMILES | Potency
20 | COc1ccc(-n2c(=O)c(-c3cn(C)c4ccccc34)nc3cnc(N4CCNCC4)nc32)cc1 | inconclusive: 112 µM [inhibitor, single point]
21 | COC(=O)c1cccc(-c2cc(Cl)c3c(c2)CC(CNC(=O)c2cccnc2)O3)c1 (configuration not stated) | inconclusive: 50.1 µM [inhibitor, single point]
22 | CN(CCOc1ccc(C[C@H](Nc2ccccc2C(=O)c2ccccc2)C(=O)O)cc1)c1ccccn1 | inconclusive: 112 µM [inhibitor, single point]
23 | CC(=O)Nc1ccc(SC[C@H](C)CN2CC[C@H](C(C)(C)C)CCC2=O)cc1 | inconclusive: 100 µM [inhibitor, partial curve]
24 | CCCCC[C@H]1CN(C2CCCCC2)C(=O)[C@@H]1CC(=O)NCc1ccccc1 | inconclusive: 56.2 µM [inhibitor, partial curve]
25 | COc1cc(=O)n2c(c1C(=O)N(C)Cc1nonc1C)CCN(Cc1ccsc1)CC2 | inactive
26 | COc1c(O)cc2oc3cc(O)c(CC=C(C)C)c(O)c3c(=O)c2c1CC=C(C)C | inconclusive: 89.1 µM [inhibitor, partial curve]
27 | CCOC(=O)C1(O)Oc2cc(OC)cc(OC)c2C(=O)C1c1ccccc1 (configuration not stated) | inconclusive: 50.1 µM [inhibitor, single point]
28 | COc1ccccc1CNc1ccnc(-c2cccc(C#N)c2)n1 | inconclusive: 63.1 µM [inhibitor, partial curve]
29 | COc1cc(CN2CCOc3ccc(CN4CCC(O)(c5cccnc5)CC4)cc3C2)cc(OC)c1 | inactive
30 | CCCCCCCCCCCCCCSCC(=O)O | inconclusive: 126 µM [inhibitor, single point]
31 | CC(C)(CO)Cc1cc(C(C)(C)C)c(O)c(C(C)(C)C)c1 | inconclusive: 28.2 µM [inhibitor, full curve, poor fit]
32 | COc1ccc2[nH]cc(CCNc3cc(-c4cccnc4)ncn3)c2c1 | inconclusive: 50.1 µM [inhibitor, single point]
33 | C#CCN(Cc1nc(N2CCOCC2)c2ccc(Cl)cc2n1)Cc1ccco1 | inactive
34 | COc1cc(/C=C/C(=O)c2cccs2)cc(OC)c1OC | inactive
35 | O=C(Nc1nccs1)[C@@H]1CC=C[C@@H]2CCN(Cc3ccccc3)C(=O)[C@@H]21 | inactive
36 | COc1cccc(Cn2c(=O)c(-c3ccc(Cl)cc3)nc3cnc(N4CCNCC4)nc32)c1 | inconclusive: 56.2 µM [inhibitor, partial curve]
37 | C#C[C@]1(O)CC[C@H]2[C@@H]3CCC4=CCCC[C@@H]4[C@H]3C(=C)C[C@@]21CC | inconclusive: 126 µM [inhibitor, partial curve, poor fit]
38 | CON=C1C[C@]2(C[C@@H]3C[C@@H](C/C=C(\C)C[C@@H](C)/C=C/C=C4\CO[C@@H]5[C@H](O)C(C)=C[C@@H](C(=O)O3)[C@]45O)O2)O[C@H](/C(C)=C/C(C)C)[C@H]1C | inconclusive: 7.94 µM [inhibitor, full curve] and inconclusive: 15.8 µM [inhibitor, full curve]

Row | SMILES | Potency
39 | CC1(C)CCC2=C(O1)c1ccccc1C(=O)C2=O | inconclusive: 35.5 µM [inhibitor, full curve]
40 | Cc1cc(C(=O)Nc2cccc(-c3nc(CNC(=O)c4ccccc4C(F)(F)F)c(C)o3)c2)c(C)o1 | inconclusive: 79.4 µM [inhibitor, partial curve, poor fit]
41 | Cn1cccc1C(=O)N1CCC[C@@]2(CCN(c3cccc(-c4ccccc4)c3)C2)C1 | inactive
42 | COc1cc(C)c(CN2C[C@H](Sc3ccccn3)C[C@H]2C(=O)N(C)C)cc1C | inactive
43 | C=CC1=C(C)C2=NC1=CC1=NC(=CC3=NC(=CC4=NC(=C2)C(C)=C4CCC(=O)O)C(CCC(=O)O)=C3C)C(C=C)=C1C.[Zn] | inconclusive: 50.1 µM [inhibitor, full curve, poor fit]
44 | Cn1c(=O)c(-c2ccccc2)nc2cnc(Nc3ccccc3)nc21 | inactive
45 | CO[C@H]1C[C@@H]2CC[C@@H](C)[C@@](O)(O2)C(=O)C(=O)N2CCCC[C@H]2C(=O)O[C@H]([C@H](C)C[C@@H]2CC[C@@H](O)[C@H](OC)C2)CC(=O)[C@H](C)C=C(C)[C@@H](O)[C@@H](OC)C(=O)[C@H](C)C[C@H](C)/C=C/C=CC=C1C | inconclusive: 22.4 µM [inhibitor, full curve, poor fit]
46 | NC(C(=O)O)c1cc(O)cc(O)c1 (configuration not stated) | inactive
47 | Cc1ccc(SC[C@H](Cc2ccccc2)N2CC[C@@H](NC(=O)OCc3ccccc3)CCC2=O)cc1 | inconclusive: 56.2 µM [inhibitor, partial curve]
48 | COc1ccc(CNc2ccnc(-c3cccc(NS(C)(=O)=O)c3)n2)c(OC)c1 | inconclusive: 112 µM [inhibitor, partial curve, poor fit]
49 | CC(C)(C)CC(C)(C)N=C1Nc2ccccc2N[C@]12C[C@H]1CCCC(=O)N3CC[C@@H](C2)[C@@H]13 | inconclusive: 50.1 µM [inhibitor, partial curve]
50 | Nc1cccc2c(N)cccc12 | inconclusive: 251 µM [inhibitor, single point]
51 | COc1ccccc1-c1ccc2ncnc(NCc3ccccc3)c2c1 | inconclusive: 39.8 µM [inhibitor, partial curve, poor fit]
52 | CC(C)C[C@@H](CO)N(Cc1ccccc1)S(=O)(=O)N(Cc1ccccc1)[C@H](CO)CC(C)C | inconclusive: 11.2 µM [inhibitor, full curve]
53 | CCc1oc2ccccc2c1C(=O)c1cc(Br)c(O)c(Br)c1 | active: 100 µM
54 | CC/C(=C(\c1ccccc1)c1ccc(OCCN(C)C)cc1)c1ccccc1 | inconclusive: 35.5 µM [inhibitor, full curve]
55 | CCN(CC)c1ccccc1/C=C/[n+]1ccc(CCCCI)c2ccccc21 | inconclusive: 50.1 µM [inhibitor, partial curve]
56 | O=Cc1ccc(I)cc1 | inconclusive: 28.2 µM [inhibitor, single point]
57 | COC(=O)C1=C(C)NC(C)=C(C(=O)OCCSc2ccccc2)[C@@H]1C | inconclusive: 39.8 µM [inhibitor, full curve]
